Measured values reported in patent US20140018297A1.

What was measured:
[1] = molecular target: FVIII (as used in the competition ELISA of Example 21; form not stated) (UniProt P00451); assay: competition ELISA; competitor coated human VWF; FVIII 1 nM pre-incubated with plasma derived VWF
[2] = molecular target: Radioactively labelled FVIII (125I-FVIII) (UniProt P00451); assay: cell-based or functional assay

Row | Substance | IC50 [1] [nM] | IC50 (nM), inhibition of FVIII binding to U87 MG cells [2] [nM] | IC50 (nM), inhibition of FVIII internalization in U87 MG cells [2] [nM] | Maximal inhibition (%), FVIII binding to U87 MG cells [2] [%] | Maximal inhibition (%), FVIII internalization in U87 MG cells [2] [%]
1 | Plasma derived full length VWF, VWF ([…]) (a stretch of the chain, sequence left out) | 1.1 |  |  |  | 
2 | Plasma derived full length VWF, VWF ([…]) (a stretch of the chain, sequence left out) (other; 125I label) |  | 1.2 | 1.3 | 34.3 | 32.2
